Data reported in patent US12213955B2 (priority 2017, dated 2025).

Tests used:
[1] = tested on: influenza A(H1N1)pdm09 virus; type: cell-based, A/Hong Kong/415742/2009(H1N1)pdm09
[2] = tested on: influenza A(H1N1)pdm09 virus; type: cell-based, A/Hong Kong/415742/2009(H1N1)pdm09; remark: listed apart in the source

Row | SMILES | decrease in viral titer in the supernatant vs DMSO-treated control (influenza A(H1N1)pdm09) [log 10/ml] | cell protection against influenza A(H1N1)pdm09 virus infection [1] | concentrations inhibiting replication of influenza A(H1N1)pdm09 [2] | selectivity index (CC50/IC50) [2]
1 | CCCCCCCCCCCCCCC(Br)C(=O)O (stereo not drawn) [2-BP] | 1 |  |  | 
2 | CC1(C)CCC(C)(C)c2cc(C(=O)Nc3ccc(C(=O)O)cc3)ccc21 [AM580] |  | protected cells against infection | nanomolar to low micromolar | 159
3 | CCCCCCCCCCCCC/C=C/[C@@H](O)[C@H](CO)NC(=O)CCCCCCCCCCCCCCC [C16 Ceramide] |  | specifically protected MDCK cells |  | 
4 | O=Cc1c2[nH]c3ccccc3c2cc2[nH]c3ccccc3c12 [FICZ] |  | specifically protected MDCK cells |  | 
